Activity change, negative = inhibition data for 37 molecules are collected here from PubChem BioAssay AID1745853 (National Center for Advancing Translational Sciences (NCATS), 2022).

What all share (experiment): Primary Screen for Target Class Profiling of Small Molecule Inhibitors of Methyltransferases
Assay [1] deals with Glycine N-methyltransferase (Homo sapiens) (UniProt Q14749). The conditions noted are these: purified enzyme, MTase-Glo SAH luminescence; measured here: GNMT inhibition; at 40 µM; stronger effect = lower value. The method, boiled down:
(§1)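 Each enzyme was reacted with SAM and its substrate, with compounds tested once at 40 uM; SAH formed was read by MTase-Glo luminescence.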

The target of assay [2] is Guanidinoacetate N-methyltransferase (Homo sapiens) (UniProt Q14353). The conditions noted are these: purified enzyme, MTase-Glo SAH luminescence; measured here: GAMT inhibition; at 40 µM; stronger effect = lower value. The procedure, abridged:
as §1

Assay [3] addresses Histamine N-methyltransferase (Homo sapiens) (UniProt P50135). The settings on record: purified enzyme, MTase-Glo SAH luminescence; measured here: HNMT inhibition; at 40 µM; stronger effect = lower value. The procedure, abridged: as §1
For assay [4], the target named is Nicotinamide N-methyltransferase (Homo sapiens) (UniProt P40261). The conditions noted are these: purified enzyme, MTase-Glo SAH luminescence; measured here: NNMT inhibition; at 40 µM; stronger effect = lower value. The method, boiled down: as §1
For assay [5], the target named is Phenylethanolamine N-methyltransferase (Homo sapiens) (UniProt P11086). The conditions noted are these: purified enzyme, MTase-Glo SAH luminescence; measured here: PNMT inhibition; at 40 µM; stronger effect = lower value. The procedure, abridged: as §1

Some of the results follow. The main result of the screen is listed elsewhere. These columns were measured beside it and carry no call.
% is set by controls: 0 for no effect and ±100 for the full control effect.

On to `CC(C)n1nc(CNC(=O)Cc2ccc(F)cc2)c2ccccc21`, for which the activity change, negative = inhibition in assay [1] amounted to 13.3%; in assay [2], 3.8%; in assay [3], 10%; in assay [4] it was 7%; in assay [5] it was 9.34%.

Consider `Cn1c(=O)c2nc(/C=C/c3cccc(Cl)c3)n(C)c2n(C)c1=O`, for which the activity change, negative = inhibition is -3.72% in assay [1]; -2.14% in assay [2]; 9.16% in assay [3]; -20.1% in assay [4]; 2.5% in assay [5].

As to `C=C1[C@@H]2CC[C@@]3(C)[C@H](c4ccoc4)OC(=O)C[C@]13O[C@H]1CC(=O)C(C)(C)[C@H](CC(=O)OC)[C@]12C`, the activity change, negative = inhibition in assay [1] was 1.75%; in assay [2], 1.18%; in assay [3], 5.33%; in assay [4], -10.9%; in assay [5] it was 1.78%.

`CNCCC(Oc1ccccc1C)c1ccccc1` (configuration not stated): the activity change, negative = inhibition is 9.78% in assay [1]; 8.26% in assay [2]; 14.3% in assay [3]; -8.04% in assay [4]; -2.97% in assay [5].

Regarding `Cc1ccccc1CNC(=O)c1ncn2c1C(=O)N(C1CC1)C(C)(C(=O)NCc1ccc(F)cc1)C2` (configuration not stated), the activity change, negative = inhibition in assay [1] is 5.28%; in assay [2] it was 5.4%; in assay [3], 7.62%; in assay [4], 7.63%; in assay [5], 10.5%.

With `COCCN1C(=O)c2ccccc2C(C(=O)Nc2nnc(C)s2)C12CCCCC2` (configuration not stated), the activity change, negative = inhibition in assay [1] was found to be 0.735%; in assay [2], 0.973%; in assay [3], 1.06%; in assay [4], 3.91%; in assay [5], 2.01%.

For `C[S+](=O)([O-])N1Cc2ccccc2OC2(CCN(C(=O)c3cccc4[nH]ccc34)CC2)C1`, the activity change, negative = inhibition in assay [1] is -12.6%; in assay [2], -7.04%; in assay [3] it was -3.48%; in assay [4] it was -10.1%; in assay [5], -6.19%.

With `CCOC(=O)c1cc2n(n1)CC(C)(C(=O)NC1CCC(C)CC1)N(c1ccc(C)c(Cl)c1)C2=O` (configuration not stated), the activity change, negative = inhibition in assay [1] was 2.32%; in assay [2] it was 6.04%; in assay [3], 6.53%; in assay [4], -4.53%; in assay [5] it was 2.33%.

For the molecule `COc1cccc(Nc2ncc3c(n2)C(C)(C(=O)N2CCN(c4ccccn4)CC2)CC3)c1` (configuration not stated), the activity change, negative = inhibition in assay [1] was -4.02%; in assay [2], -1.11%; in assay [3], -0.852%; in assay [4], -12.2%; in assay [5], -4.62%.

Regarding `COc1ccccc1-c1nc(SCC(=O)Nc2ccc(C)c(C)c2)n[nH]1`, the activity change, negative = inhibition in assay [2] is 1.42%; in assay [4] it was -28.2%; in assay [5], -4.8%.

With `Cn1ncc(N2CCCC(C(=O)NCCCc3ccccc3)C2)cc1=O` (configuration not stated), the activity change, negative = inhibition was -4.29% in assay [1]; -5.43% in assay [2]; -5.85% in assay [3]; -13.4% in assay [4]; -11.3% in assay [5].

Turning to `Cc1ccc(C(=O)N2CCC3(CC2)CC(N2CCN(CC(C)C)CC2)CCO3)cn1` (configuration not stated), the activity change, negative = inhibition in assay [1] was -3.32%; in assay [2] it was -5.1%; in assay [3], -1.31%; in assay [4] it was -5.56%; in assay [5] it was -18.9%.

For `CC(C)C1c2cccn2CCN1C(=O)Nc1ccccc1` (configuration not stated), the activity change, negative = inhibition was 15.6% in assay [1]; 0% in assay [2]; 8.16% in assay [3]; 5.71% in assay [4]; 7.25% in assay [5].

Turning to `O=C(CCn1ccc2cc(S(=O)(=O)N3CCCC3)ccc21)NCc1ccccc1Cl`, the activity change, negative = inhibition is -5.88% in assay [1]; -0.979% in assay [2]; 0.603% in assay [3]; -7.56% in assay [4]; -4.17% in assay [5].

`O=S(=O)(c1ccccc1)N1CCC(CCOc2ccccc2)C1` (configuration not stated): the activity change, negative = inhibition in assay [1] was 1.27%; in assay [2], -1.22%; in assay [3] it was 0.731%; in assay [4] it was 0.4%; in assay [5] it was -7.35%.

`O=C(Nc1ccc(F)cc1)c1ccnc2[nH]ccc12`: the activity change, negative = inhibition is -6.42% in assay [1]; 0.731% in assay [2]; -3.27% in assay [3]; -10.2% in assay [4]; -5.5% in assay [5].

Turning to `NC(=O)c1cccc2cn(-c3ccc(C4CCCNC4)cc3)nc12` (configuration not stated), the activity change, negative = inhibition in assay [1] is -5.52%; in assay [3] it was -65.7%.

In the case of `Cc1ccc(Cn2c(=O)c3ccccc3n3c(SCC(=O)NC(C)C)nnc23)cc1`, the activity change, negative = inhibition is -0.93% in assay [1]; 0% in assay [2]; 6.39% in assay [3]; 2.46% in assay [4]; 3.51% in assay [5].

Regarding `CC(C)OCCCn1c(=O)c2ccccc2n2c(CCC(=O)Nc3ccccc3)nnc12`, the activity change, negative = inhibition in assay [1] was -8.27%; in assay [2], 5.08%; in assay [3], 1.68%; in assay [4], 2.43%; in assay [5], -7.36%.

For the molecule `O=C(Cn1ccc2cc(S(=O)(=O)N3CCCC3)ccc21)NCc1ccccc1Cl`, the activity change, negative = inhibition was 6.66% in assay [1]; 4.08% in assay [2]; 2.74% in assay [3]; -0.539% in assay [4]; -0.799% in assay [5].

In the case of `N=S(=O)(O)Cc1noc2ccccc12`, the activity change, negative = inhibition is -0.86% in assay [1]; 5.49% in assay [2]; -0.951% in assay [3]; -3.02% in assay [4]; 3.69% in assay [5].

Take `COc1ccnc(CS(=O)c2nc3cc(OC(F)F)ccc3[nH]2)c1OC` (configuration not stated): the activity change, negative = inhibition in assay [1] is -8.07%; in assay [3], -0.808%.

As for `CCCn1c(=O)c2ccc(Cl)cc2n2c(=O)n(Cc3ccc(F)cc3)nc12`, the activity change, negative = inhibition in assay [1] is 0.228%; in assay [2], 4.74%; in assay [3], 5.19%; in assay [4], -2.58%; in assay [5], 2.54%.

Regarding `CN1Cc2nc(OCc3ccc(F)cc3)ccc2OCC1=O`, the activity change, negative = inhibition was -8.35% in assay [1]; -4.02% in assay [2]; -1.51% in assay [3]; -11.4% in assay [4]; -14.2% in assay [5].

Regarding `C[C@@H]1O[C@@H](O[C@H]2[C@H](OC(=O)[C@]34CCC(C)(C)C[C@H]3C3=CCC5[C@@]6(C)C[C@H](O)[C@H](O[C@@H]7O[C@H](CO)[C@@H](O[C@@H]8O[C@H](CO)[C@@H](O)[C@H](O)[C@H]8O)[C@H](O)[C@H]7O)[C@@](C)(CO)C6[C@H](O)C[C@@]5(C)[C@]3(C)C[C@H]4O)OC[C@H](O)[C@@H]2O)[C@H](O)[C@H](O)[C@H]1O[C@@H]1OC[C@@H](O)[C@H](O[C@@H]2OC[C@](O)(CO)[C@H]2O)[C@H]1O` (some centres not stated), the activity change, negative = inhibition was -7% in assay [1]; -5.4% in assay [2]; 6.07% in assay [3]; -15.8% in assay [4]; -5.93% in assay [5].

As for `Cc1ccc(NC(=O)CN(C)S(=O)(=O)c2ccc3[nH]c4c(c3c2)CCCC4)cc1F`, the activity change, negative = inhibition amounted to 0.651% in assay [1]; 6.15% in assay [2]; 2.34% in assay [3]; 0.29% in assay [4]; 0.42% in assay [5].

For `O=C(c1ccc(OC2CCN(C(=O)C3CCCC3)CC2)nc1)N1CCOCC1`, the activity change, negative = inhibition is 2.06% in assay [1]; -5.47% in assay [2]; -2.24% in assay [3]; -1.39% in assay [4]; -12.2% in assay [5].

For the molecule `O=C(C1CCCN([S+](=O)([O-])c2cccs2)C1)N1CCC(N2CCCC2=O)CC1` (configuration not stated), the activity change, negative = inhibition in assay [1] was -2.44%; in assay [2] it was -1.44%; in assay [3], 0.876%; in assay [4] it was -5.29%; in assay [5], -1.79%.

On to `O=C1CO[C@H]2CCN(CCCc3ccccc3)CC[C@@H]2N1c1ccccc1`, for which the activity change, negative = inhibition in assay [1] was -5.6%; in assay [2], -1.73%; in assay [3], -5.49%; in assay [4], -9.86%; in assay [5], -1.58%.

On to `CCCn1c(=O)c2ccc(C(=O)NCC(C)C)cc2n2c(=O)n(CC(=O)Nc3ccc(CC)cc3)nc12`, for which the activity change, negative = inhibition in assay [1] is 5.29%; in assay [2] it was 0%; in assay [3], 7.91%; in assay [4], -0.193%; in assay [5], 4.16%.

For the molecule `Cc1c(Cl)cccc1S(=O)(=O)Nc1nc(NCCc2ccccc2)nc2c1CN(Cc1ccccc1)CC2`, the activity change, negative = inhibition is -1.45% in assay [1]; -18.6% in assay [2]; 2.71% in assay [3]; -47.7% in assay [4]; -35.7% in assay [5].

Take `CC(=O)N1CCN(c2nc3c(s2)CC(C(=O)NCc2ccc(C(C)C)cc2)CC3)CC1` (configuration not stated): the activity change, negative = inhibition in assay [1] is -3.85%; in assay [2] it was -1.48%; in assay [3] it was -0.723%; in assay [4] it was -9.13%; in assay [5], 2.96%.

In the case of `CCOCCCNc1nc2c(S(=O)(=O)c3ccccc3)nnn2c2ccccc12`, the activity change, negative = inhibition in assay [1] was -2.36%; in assay [2], 4.21%; in assay [3] it was 3.16%; in assay [4], 4.36%; in assay [5] it was -3.91%.

As for `CCOC(=O)c1cc2n(n1)CC(C)(C(=O)NC1CCCCCC1)N(c1cc(C)ccc1C)C2=O` (configuration not stated), the activity change, negative = inhibition in assay [1] was 8.3%; in assay [2] it was 1.48%; in assay [3] it was -11.6%; in assay [4], 6.93%; in assay [5], 6.7%.

For `CCOC(=O)c1cc2n(n1)CC(C)(C(=O)NC1CCCC1)N(c1cc(C)ccc1OC)C2=O` (configuration not stated), the activity change, negative = inhibition amounted to 6.57% in assay [1]; 0% in assay [2]; 5.35% in assay [3]; 4.52% in assay [4]; 4.75% in assay [5].

Turning to `CCN1/C(=C/C(C)=O)Sc2ccc(OC)cc21`, the activity change, negative = inhibition in assay [1] is -11.7%; in assay [2], 8.8%; in assay [3] it was 5.42%; in assay [4] it was -21%; in assay [5] it was -0.375%.

As to `C[C@H]1c2cccc(O)c2C(O)=C2C(=O)[C@]3(O)C(O)=C(C(N)=O)C(=O)[C@@H](N(C)C)[C@@H]3[C@@H](O)[C@@H]21`, the activity change, negative = inhibition is -22.5% in assay [1]; -1.51% in assay [2]; 1.93% in assay [3]; -9.3% in assay [4]; -2.77% in assay [5].
